In US20220259303A1 (ZHEJIANG DOER BIOLOGICS, published 2022):

B1: Anti-C18.2-hu19V1-Fc (Fc fusion)
chain: QVQLVESGGGLVQPGGSLRLSCAASGVDISSDVMAWYRQAPGKQREFVSGLTRGGSINYADSVKGRFTISRDNSKNTLYLQMNSLRAEDTAVYYCNAEIYTGTFYPRSYWGQGTLVTVSS[human IgG1 Fc left out]
notes: humanized variant huV1 of C18-19 fused to human IgG1 Fc, expressed in HEK293F
B2: Anti-C18.2-hu19V3-Fc (Fc fusion)
chain: B1 chain with Q44G, R45L
notes: humanized variant huV3 of C18-19 fused to human IgG1 Fc, expressed in HEK293F
B3: Anti-C18.2-19-Fc (Fc fusion)
chain: B1 chain with N73F, S74A, L78V, Y79D, R86K, A87P
notes: also called Anti-C18.2-Fc fusion protein (clone C18-19)

Target: T1, CLD18A2
T1 construct: also called claudin 18 splice variant A2; CHO-S-CLD18A2
Assay: cell ELISA on CLD18A2-expressing cells, anti-human IgG Fc detection
Protocol: The Anti-C18.2-Fc fusion proteins are diluted in gradients with 1% BSA, and the HRP-Goat anti-Human IgG Fc (Novex) secondary antibody is diluted 1:20000. The cell ELISA method is the same as that described in Embodiment 3.2. The software GraphPad Prism v5.0 is used for data processing and mapping analysis. The binding curve and EC50 value of Anti-C18.2-Fc against CLD18A2 in cells are obtained to reflect the affinity of the antibody to CLD18A2.
The affinities of Anti-C18.2-hu19V1-Fc and Anti-C18.2-hu19V3-Fc are similar to that of Anti-C18.2-19-Fc, which are better than that of the positive control ch-175D10.

EC50 [nM] | Binder
0.82 | B1
0.41 | B2
0.71 | B3

Substitutions are numbered along the chain they refer to.
